#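 Five concentrations, 48 hours, 96-well plates. GI50 is the concentration that inhibits growth by half.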 Certain results were filed several times, with different values. Only these are listed. An entry can have further records. For part of these data: Records of one sample usually come from different ranges of test concentrations, which the source does not state; a value can be the end of its range.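 TGI: total growth inhibition.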 A tag in brackets gives the origin of a value. A, B and so on number the origins entry by entry. For part of these data: Values that stand side by side repeat one measurement (runs, samples, wells, individuals or studies).
# What was measured:
# Test in all cases: NCI tumour cell line growth inhibition, 48 h
# ACHN renal = test system: ACHN renal
# CCRF-CEM leukemia = test system: CCRF-CEM leukemia
# HL-60(TB) leukemia = test system: HL-60(TB) leukemia
# NCI-H460 lung = test system: NCI-H460 lung
# SK-MEL-2 melanoma = test system: SK-MEL-2 melanoma
# OVCAR-8 ovarian = test system: OVCAR-8 ovarian
# SW-620 colon = test system: SW-620 colon
# EKVX NSCLC = test system: EKVX NSCLC
# MALME-3M melanoma = test system: MALME-3M melanoma
# OVCAR-3 ovarian = test system: OVCAR-3 ovarian
# SK-MEL-28 melanoma = test system: SK-MEL-28 melanoma
# SNB-19 CNS = test system: SNB-19 CNS
# SF-268 CNS = test system: SF-268 CNS
# IGROV1 ovarian = test system: IGROV1 ovarian
# SN12C renal = test system: SN12C renal
# SR leukemia = test system: SR leukemia
# HT29 colon = test system: HT29 colon
# OVCAR-4 ovarian = test system: OVCAR-4 ovarian
# NCI-H522 lung = test system: NCI-H522 lung
# TK-10 renal = test system: TK-10 renal
# HCC-2998 colon = test system: HCC-2998 colon
# SK-OV-3 ovarian = test system: SK-OV-3 ovarian
# MOLT-4 leukemia = test system: MOLT-4 leukemia
# SK-MEL-5 melanoma = test system: SK-MEL-5 melanoma
# SNB-75 CNS = test system: SNB-75 CNS
# SF-295 CNS = test system: SF-295 CNS
# NCI-H23 lung = test system: NCI-H23 lung
# T-47D breast = test system: T-47D breast
# NCI-H226 lung = test system: NCI-H226 lung
# RPMI-8226 leukemia = test system: RPMI-8226 leukemia
# UO-31 renal = test system: UO-31 renal
# KM12 colon = test system: KM12 colon
# OVCAR-5 ovarian = test system: OVCAR-5 ovarian
# P388 leukemia = test system: P388 leukemia
# UACC-257 melanoma = test system: UACC-257 melanoma
# HOP-92 NSCLC = test system: HOP-92 NSCLC
# A498 renal = test system: A498 renal
# KM20L2 colon = test system: KM20L2 colon
# M19-MEL melanoma = test system: M19-MEL melanoma
# SNB-78 CNS = test system: SNB-78 CNS
# LOX IMVI melanoma = test system: LOX IMVI melanoma
# HOP-18 NSCLC = test system: HOP-18 NSCLC
# MCF7 breast = test system: MCF7 breast
# CAKI-1 renal = test system: CAKI-1 renal
# COLO 205 colon = test system: COLO 205 colon
# DMS 273 small cell lung = test system: DMS 273 small cell lung
# MDA-MB-435 = test system: MDA-MB-435
# HCT-15 colon = test system: HCT-15 colon
# RXF 393 renal = test system: RXF 393 renal
# SF-539 CNS = test system: SF-539 CNS
# A549 NSCLC = test system: A549 NSCLC
# HCT-116 colon = test system: HCT-116 colon
# U251 CNS = test system: U251 CNS
# HOP-62 NSCLC = test system: HOP-62 NSCLC
# UACC-62 melanoma = test system: UACC-62 melanoma
# 786-0 renal = test system: 786-0 renal
# DU-145 prostate = test system: DU-145 prostate
# K-562 leukemia = test system: K-562 leukemia
smiles,measurement,setting,value
CCCCCCC(O)C(O)CCC(O)C1CCC(CCCCC(O)CC2=CC(C)OC2=O)O1 (stereo not drawn),TGI,ACHN renal,5.83 µM and 77.1 µM
CCC1(N)C(=O)OCc2c1cc1n(c2=O)Cc2cc3ccccc3nc2-1 (stereo not drawn),TGI,CCRF-CEM leukemia,> 100 µM [sample A] and 6.34 µM [sample B]
same,TGI,HL-60(TB) leukemia,7.04 µM [sample A] and > 100 µM [sample B]
same,TGI,NCI-H460 lung,3.66 µM [sample A] and > 38.8 µM [sample B]
O=C(N[C@@H](Cc1ccccc1)B(O)O)[C@H](Cc1cccc2ccccc12)NC(=O)N1CCOCC1,TGI,SK-MEL-2 melanoma,4.97 nM and 50.4 nM
CSC1SCC2C(=O)N(C)C(C(C)C)C(=O)OCC(NC(=O)c3cnc4ccccc4n3)C(=O)NC(C)C(=O)N(C)C1C(=O)N(C)C(C(C)C)C(=O)OCC(NC(=O)c1cnc3ccccc3n1)C(=O)NC(C)C(=O)N2C (stereo not drawn),TGI,OVCAR-8 ovarian,"2.17 nM [sample A] and 0.425, 24.1, 111, 175 nM [sample B]"
same,TGI,SW-620 colon,"2.92 µM [sample A] and 24 nM, 1.41 µM, 1.73 µM [sample B]"
same,TGI,EKVX NSCLC,"2.04 nM [sample A] and 0.694, 32.4, 29.6, 24.3 nM [sample B]"
same,TGI,MALME-3M melanoma,"< 1 nM [sample A, 1 test] and 0.000859 nM [sample B, mean of 3 tests] and 1.65 nM [sample B, mean of 4 tests]"
same,TGI,CCRF-CEM leukemia,"3.39 nM [sample A] and 0.738, 26.9, 651, 213 nM [sample B]"
same,TGI,OVCAR-3 ovarian,"< 1 nM [sample A] and 0.00672 nM, 3.46 nM, 58.1 nM [sample B]"
same,TGI,HL-60(TB) leukemia,"1.32 nM [sample A] and 0.0242 nM, 8.91 nM, 26.7 nM [sample B]"
same,TGI,SK-MEL-28 melanoma,"1.2 nM [sample A, mean of 2 tests] and 1.19 nM [sample B, mean of 4 tests] and 0.00792 nM [sample B, mean of 5 tests]"
same,TGI,SNB-19 CNS,"> 5.37 µM [sample A] and 49.6 nM, 1.39 µM, 2.43 µM [sample B]"
same,TGI,SF-268 CNS,"0.176 nM, 20.3 nM, 164 nM, < 11.2 nM"
same,TGI,IGROV1 ovarian,"> 10 µM [sample A] and 59.7 nM, 2.89 µM, 254 nM [sample B]"
same,TGI,SN12C renal,"59 nM [sample A] and 14.1 nM, 940 nM, 5.13 µM [sample B]"
same,TGI,SR leukemia,5.32 nM and 3.11 µM
same,TGI,HT29 colon,"81.1 nM [sample A] and 0.112, 43.3, 750, 44.4 nM [sample B]"
same,TGI,OVCAR-4 ovarian,"0.507, 8.73, 8.89, 40 nM"
same,TGI,NCI-H522 lung,"> 10 µM [sample A, 1 test] and 0.00368 nM [sample B, mean of 5 tests] and 0.338 nM [sample B, mean of 6 tests]"
same,TGI,TK-10 renal,"1.4 nM [sample A] and 14.4 nM, 286 nM [sample B]"
same,TGI,HCC-2998 colon,"< 1 nM [sample A] and 0.0114 nM, 5.54 nM, 16.9 nM [sample B]"
same,TGI,SK-OV-3 ovarian,"> 10 µM [sample A] and 44.4 nM, 1.03 µM, 4.55 µM [sample B]"
same,TGI,MOLT-4 leukemia,"< 1 nM [sample A] and 0.125 nM, 11.9 nM, 131 nM, < 19 nM [sample B]"
same,TGI,SK-MEL-5 melanoma,"0.032 nM, 2.22 nM, 75.4 nM"
same,TGI,SNB-75 CNS,3.06 nM [mean of 4 tests] and 0.0156 nM [mean of 5 tests]
same,TGI,SF-295 CNS,"1.45 nM [sample A] and 0.863, 16.7, 21.7, 86.9 nM [sample B]"
same,TGI,NCI-H23 lung,"< 1 nM [sample A, 1 test] and 0.0776 nM [sample B, mean of 4 tests] and 2.02 nM [sample B, mean of 6 tests] and 27.3 nM [sample B, mean of 9 tests]"
same,TGI,T-47D breast,"> 10 µM [sample A] and 11.6 nM, 495 nM, 58 µM [sample B]"
same,TGI,NCI-H226 lung,"22.8 nM [sample A] and 0.00437 nM, 5.81 nM, 20.9 nM, < 33.9 nM [sample B]"
same,TGI,RPMI-8226 leukemia,"< 1 nM [sample A] and 0.3, 12.4, 714, 944 nM [sample B]"
same,TGI,UO-31 renal,"> 10 µM [sample A] and 0.633 nM, 24.3 nM, 29.7 nM, < 13.1 nM [sample B]"
same,TGI,KM12 colon,"< 1 nM [sample A] and 4.81 nM, 78.4 nM, < 37 nM [sample B]"
same,TGI,OVCAR-5 ovarian,"< 1 nM [sample A] and 0.146 nM, 15.2 nM, 43.3 nM [sample B]"
same,TGI,P388 leukemia,0.325 nM and 9.32 nM
same,TGI,UACC-257 melanoma,"< 1 nM [sample A, 1 test] and 0.0243 nM [sample B, mean of 4 tests] and 2.22 nM [sample B, mean of 5 tests]"
same,TGI,HOP-92 NSCLC,"4.66 nM [sample A, mean of 2 tests] and 1.49 nM [sample B, mean of 4 tests] and 0.00612 nM [sample B, mean of 5 tests] and < 40.2 nM [sample B, mean of 6 tests]"
same,TGI,A498 renal,"< 1 nM [sample A] and 0.48 nM, 3.66 nM, 22.2 nM [sample B]"
same,TGI,KM20L2 colon,"0.315 nM, 264 nM, < 20.3 nM"
same,GI50,M19-MEL melanoma,"0.00741 nM, < 17.5 nM [mean of 4 tests] and 7.5 nM [mean of 7 tests]"
same,TGI,M19-MEL melanoma,"0.0174 nM, < 32.4 nM [mean of 4 tests] and 8.54 nM [mean of 7 tests]"
same,TGI,SNB-78 CNS,37.4 nM and 6.25 µM
same,TGI,LOX IMVI melanoma,"90.9 nM [sample A, mean of 2 tests] and 395 nM [sample B, mean of 12 tests] and 250 nM [sample B, mean of 3 tests] and 1.28 nM [sample B, mean of 4 tests]"
same,TGI,HOP-18 NSCLC,0.437 nM and 379 nM
same,TGI,MCF7 breast,658 nM and 35 µM
same,TGI,CAKI-1 renal,"1.97 nM [sample A] and 0.00749, 14.9, 46.5, 54.5 nM [sample B]"
same,TGI,COLO 205 colon,"> 10 µM [sample A] and 0.0134 nM, 3.23 nM, 7.59 nM [sample B]"
same,TGI,DMS 273 small cell lung,0.216 nM and 16.7 nM
same,TGI,MDA-MB-435,< 1 nM [sample A] and 10 nM [sample B]
same,TGI,HCT-15 colon,"> 3.4 µM [sample A] and 54.7 nM, 839 nM, 2.16 µM [sample B]"
same,TGI,RXF 393 renal,"0.0109 nM, 6.17 nM, 9.68 nM"
same,TGI,SF-539 CNS,"< 1 nM [sample A, mean of 2 tests] and 2.57 nM [sample B, mean of 4 tests] and 0.0817 nM [sample B, mean of 5 tests]"
same,TGI,A549 NSCLC,"4.52 nM [sample A] and 0.513 nM, 342 nM, 12.2 µM [sample B]"
same,TGI,HCT-116 colon,"22.3 nM, 6.8 µM, 2.54 µM"
same,TGI,U251 CNS,"> 5.38 µM [sample A] and 724 nM, 154 nM [sample B]"
same,TGI,HOP-62 NSCLC,"2.67 nM [sample A] and 0.0294 nM, < 17.6 nM, 21.6 nM [sample B]"
same,TGI,NCI-H460 lung,"11.1 nM, 111 nM, 3.56 µM"
same,TGI,UACC-62 melanoma,"1.99 nM [sample A, mean of 2 tests] and 0.00195 nM [sample B, mean of 4 tests] and 0.642 nM [sample B, mean of 5 tests]"
same,TGI,786-0 renal,"> 3.31 µM [sample A, mean of 2 tests] and 1.76 µM [sample B, 1 test] and 42.7 nM, 18.4 µM [sample B, mean of 3 tests]"
same,TGI,DU-145 prostate,"3.14 µM [sample A, 1 test] and > 100 µM [sample B, 1 test] and 1.77 µM [sample B, mean of 3 tests]"
same,TGI,K-562 leukemia,"> 2.2 µM [sample A, mean of 2 tests] and 311 nM [sample B, mean of 3 tests] and 0.197 nM, 40.3 nM [sample B, mean of 5 tests] and 2.73 µM [sample B, mean of 9 tests]"
same,TGI,ACHN renal,"< 1 nM [sample A, 1 test] and 27.1 nM, 923 nM [sample B, mean of 3 tests]"

# Reference: PubChem BioAssay (NCI)
